Measurements taken from patent US20240115649A1, “CASPASE INHIBITION TO ENHANCE REGENERATION AND REPAIR AFTER SKIN OR GUT INJURY AND TO TREAT BACTERIAL OR VIRAL INFECTIONS” (The Johns Hopkins University, priority 2020, published 2024).
Where two headings read alike, the source gives them in different places.

Assays:
[1] = system: P. aeruginosa strain Xen41; assay: P. aeruginosa skin infection model; details: mortality of 40% of the untreated mice
Excerpt: (§1) In vivo mouse models of bacterial skin infections. All animal studies were approved by the Johns Hopkins University Animal Care and Use Committee. For all experiments, 6-8-week-old sex- and age-matched mice were used. The dorsal backs of anesthetized (inhalation isoflurane [2%]) mice were shaved and inoculated via intradermal (i.d.) injection of CA-MRSA strain USA300 LAC::lux (3×10^7 CFU (25, 26)), S. pyogenes strain Xen20 (5×10^5 CFU (42)) or P. aeruginosa strain Xen41 (5×10^6 CFU (43)) in 100 μL of PBS using a 29-gauge insulin syringe. In some experiments, an anti-TNF mAb or isotype control mAb was administered via i.p. injection on days −1, 0 and 1 of the S. aureus skin inoculation.
(§2) Measurement of total lesion size. Total lesion size (cm^2) was measured from digital photographs of the back skin of anesthetized mice (2% isoflurane) using ImageJ software and a millimeter ruler as a reference.
In vivo whole animal bioluminescence and fluorescence imaging. In vivo bioluminescence imaging (BLI) to provide an approximation of the in vivo bacterial burden (when used in conjunction USA300 LAC::lux, Xen20 or Xen41 bioluminescent bacterial strains) and in vivo fluorescence imaging (FLI) (when used in conjunction with ASC-Citrine mice) were performed on anesthetized mice (2% isoflurane) using a Lumina III in vivo imaging system (IVIS) (PerkinElmer). […]

[2] = system: CA-MRSA strain USA300 LAC::lux
Excerpt: as §1, §2
In vivo whole animal bioluminescence and fluorescence imaging. In vivo bioluminescence imaging (BLI) to provide an approximation of the in vivo bacterial burden (when used in conjunction USA300 LAC::lux, Xen20 or Xen41 bioluminescent bacterial strains) and in vivo fluorescence imaging (FLI) (when used in conjunction with ASC-Citrine mice) were performed on anesthetized mice (2% isoflurane) using a Lumina III in vivo imaging system (IVIS) (PerkinElmer). For in vivo BLI, data are presented on a color scale overlaid on a grayscale photograph of the mice and quantified within a 1×10^3 pixel circular region of interest (ROI) as total flux (photons/s). ASC-Citrine FLI signals were measured using a 488 nm excitation wavelength and a 507 nm emission wavelength and an exposure time of 0.5 seconds. In vivo FLI data are presented on a color scale overlaid on a grayscale photograph of the mice and quantified within a rectangular ROI as total radiant efficiency ([photons/s]/[mW/cm^2]).
Ex vivo CFU enumeration. Skin tissue homogenates were obtained by performing a 10-mm lesional skin punch biopsy (Acuderm) and homogenizing each specimen (Pro200 Series homogenizer; Pro Scientific) in Reporter Lysis Buffer (Promega) containing protease inhibitor cocktail tablets (Roche Life Sciences) at 4° C. Ex vivo CFUs were counted after plating serially diluted skin tissue homogenates overnight on TSA plates.
Histology. Skin punch biopsy specimens (10 mm) were collected on day 3, fixed in formalin (10%) and embedded in paraffin. Sections (4 μm) were mounted onto glass slides and stained with hematoxylin and eosin (H&E) and Gram stain and digitally scanned by the Johns Hopkins Reference Histology Laboratory, according to guidelines used for clinical specimens. The images were analyzed using Aperio ImageScope (v12.4) image analysis software (Leica Biosystems). Dermonecrosis area (mm) was determined by manually measuring the width of dermonecrosis observed in each H&E section. The abscess area was determined by manually outlining the neutrophilic abscess in each H&E stained section and image analysis calculation of the area. Bacterial band width (mm) was determined by manually measuring the width of the bacterial band in each Gram-stained section.

[3] = ASC^−/− mice, 20 mg/kg i.p. at 4 hours, vs untreated
[4] = Gasdermin D^−/− mice, 20 mg/kg i.p. at 4 hours, vs untreated
[5] = IL-1β^−/− mice, 20 mg/kg i.p. at 4 hours, vs untreated
[6] = TNF/IL-1R^−/− mice, 20 mg/kg i.p. at 4 hours, vs untreated
[7] = TNF^−/− mice, 20 mg/kg i.p. at 4 hours, vs untreated
[8] = WT mice administered αTNF mAb on days −1, 0 and 1, vs untreated
[9] = WT mice, H&E sections, day 3, vs untreated
[10] = caspase-1/11^−/− mice, 20 mg/kg i.p. at 4 hours
[11] = caspase-1^−/− mice, 20 mg/kg i.p. at 4 hours
[12] = caspase-11^−/− mice, 20 mg/kg i.p. at 4 hours

`CC(C)[C@H](NC(=O)c1ccc2ccccc2n1)C(=O)N[C@@H](CC(=O)O)C(=O)COc1c(F)cccc1F` [Q-VD-OPH, Quinoline-val-asp-difluorophenoxymethyl ketone] was tested, and the “mortality following bacterial dissemination” value [1] was “none of the mice treated with Q-VD-OPH succumbed to the infection”, the “in vivo BLI imaging signals” value ([2]; ASC-Citrine mice, 6 hours following Q-VD-OPH administration, vs untreated) was “no difference” and the “in vivo BLI signals” value [2, 3] was “substantially reduced”. For the same compound, the skin lesions [2, 3] was “substantially reduced”, the “in vivo BLI signals” value [2, 4] was “substantially reduced” and the skin lesions [2, 4] was “substantially reduced”. The “in vivo BLI signals” value [2, 5] was “substantially reduced”, the skin lesions [2, 5] was “substantially reduced” and the “in vivo BLI signals” value [2, 6] was “no significant difference”. The lesion sizes [2, 6] was “significantly smaller lesion sizes”, the “in vivo BLI signals” value [2, 7] was “no significant difference” and the lesion sizes [2, 7] was “significantly smaller lesion sizes”. For the same compound, the skin lesion sizes ([2]; WT C57BL/6 mice, single dose 20 mg/kg i.p. at 4 hours after inoculation, vs vehicle or untreated) was “rapidly and substantially reduced skin lesion sizes”, the “in vivo BLI signals” value ([2]; WT mice administered isotype control mAb, vs untreated) was “decreased in vivo BLI signals” and the “in vivo BLI signals” value [2, 8] was “no significant difference”. The lesion sizes [2, 8] was “significantly smaller lesion sizes”, the bacterial band length ([2]; WT mice, Gram-stained sections, day 3, vs untreated) was “decreased bacterial band length” and the abscess area [2, 9] was “decreased”. The dermonecrosis width [2, 9] was “decreased dermonecrosis width”, the “bacterial burden (in vivo BLI signals and ex vivo CFU on day 3)” value ([2]; WT mice, single dose 20 mg/kg i.p. at 4 hours, vs vehicle or untreated) was “rapidly and substantially reduced” and the “in vivo BLI signals” value [2, 10] was “markedly decreased”. For the same compound, the skin lesion sizes [2, 10] was “markedly decreased”, the “in vivo BLI signals” value [2, 11] was “markedly decreased” and the skin lesion sizes [2, 11] was “markedly decreased”. The “in vivo BLI signals” value [2, 12] was “markedly decreased” and the skin lesion sizes [2, 12] was “markedly decreased”.
